Source: the supplement of paper PMC12217912
This is one part of the list. Sequences were assembled here from the parent chain. Values near 0.05 are background.

B1: TEV protease; numbered along this chain (parent)
chain: MGESLFKGPRDYNPISSSICHLTNESDGHTTSLYGIGFGPFIITNKHLFRRNNGTLVVQSLHGVFKVKDTTTLQQHLVDGRDMIIIRMPKDFPPFPQKLKFREPQREERICLVTTNFQTKSMSSMVSDTSCTFPSGDGIFWKHWIQTKDGQCGSPLVSTRDGFIVGIHSASNFTNTNNYFTSVPKNFMELLTNQEAQQWVSGWRLNADSVLWGGHKVFMVKPEEPFQPVKEATQL

Variants of: B1
Experiment: raw area under fraction-flipped curve 0-4 h after induction (AUC4h, not background-subtracted), DNA-recorder readout of cleavage of the substrate (dimensionless); higher = more cleavage of the substrate by the protease variant
Conditions: temperature: 34 °C; time window: 0-4 h after rhamnose induction
Experimental: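 In vivo DNA recorder in E. coli TOP10(DE3) ΔrhaA at 34 °C. Each TEVp single-site mutant (parent TEVp 0) is paired with a single-site variant of the 7-mer TEVs (canonical ENLYFQ|S). The substrate sits between flexible linkers in a Bxb1-sfGFP-TEVs-SsrA fusion, so cleavage stabilises Bxb1 and speeds flipping of a recombination array, read by NGS. The value is the raw area under the fraction-flipped curve over 0-4 h after rhamnose induction (AUC4h), with ≥20 reads per time point. It is not background-subtracted; inactive controls average about 0.047.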
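Further: Bxb1 expression induced with 0.2% (w/v) L-rhamnose at OD600 near 0.5, cultures sampled hourly, flipped fraction per protease–substrate barcode pair counted by paired-end Illumina sequencing.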

Row | Variant | area with substrate EALYFQS | area with substrate ECLYFQS | area with substrate EDLYFQS | area with substrate EELYFQS | area with substrate EHLYFQS | area with substrate EILYFQS | area with substrate EMLYFQS | area with substrate EPLYFQS | area with substrate EQLYFQS | area with substrate ESLYFQS | area with substrate EVLYFQS | area with substrate EWLYFQS | area with substrate EYLYFQS | area with substrate EFLYFQS | area with substrate EKLYFQS | area with substrate ELLYFQS | area with substrate ERLYFQS | area with substrate ETLYFQS | area with substrate EGLYFQS
1 | I36M | 0.104 | 0.0932 | 0.127 | 0.1 | 0.0933 | 0.0923 | 0.0992 | 0.115 | 0.103 | 0.084 | 0.0813 | 0.0913 | 0.101 |  |  |  |  |  | 
2 | I36S | 0.0699 | 0.0686 | 0.0731 | 0.084 | 0.0599 | 0.0546 | 0.0756 |  | 0.0868 | 0.0775 | 0.0658 | 0.0696 | 0.0674 | 0.0726 | 0.0588 | 0.0674 | 0.0748 | 0.0788 | 
3 | I36T | 0.101 | 0.0875 | 0.111 |  | 0.0885 | 0.0785 | 0.094 | 0.115 | 0.107 | 0.0836 | 0.0787 | 0.0719 | 0.0898 |  | 0.0768 | 0.0823 | 0.0559 |  | 0.0605
4 | I36W | 0.0838 | 0.0571 | 0.0736 | 0.0661 |  | 0.0608 | 0.053 | 0.0606 | 0.0755 | 0.0587 | 0.0591 |  | 0.0611 |  | 0.0508 | 0.0528 |  | 0.066 | 0.0568
5 | I36Y | 0.0528 | 0.0529 | 0.0583 |  | 0.0518 | 0.0441 | 0.0363 |  |  | 0.0649 | 0.05 |  |  | 0.0526 |  |  |  |  | 0.0771
6 | G37I | 0.117 | 0.0615 | 0.0971 | 0.111 |  | 0.0714 | 0.0916 | 0.107 | 0.0987 | 0.0892 | 0.0775 | 0.0471 | 0.0635 |  |  | 0.077 | 0.0703 | 0.0781 | 0.0824
7 | G37T | 0.0959 | 0.0557 | 0.0282 | 0.0966 |  | 0.0699 |  |  | 0.0793 | 0.0808 | 0.0954 |  |  |  | 0.104 | 0.0487 | 0.0768 | 0.106 | 0.0593
8 | G37W | 0.0825 | 0.0787 | 0.0697 | 0.0633 | 0.0814 |  |  |  | 0.0959 | 0.0794 | 0.0769 | 0.0625 | 0.0667 |  | 0.0854 |  | 0.0701 | 0.0869 | 0.0801
9 | F38C | 0.13 | 0.0823 | 0.119 | 0.118 |  | 0.0788 | 0.0844 | 0.108 | 0.0981 | 0.0921 | 0.08 | 0.0803 | 0.112 | 0.0729 | 0.114 | 0.0605 | 0.0956 |  | 0.09
10 | F38I | 0.104 | 0.0963 | 0.0833 |  |  | 0.0746 |  | 0.101 |  | 0.0691 | 0.0884 | 0.037 | 0.0696 | 0.0878 | 0.102 | 0.0834 | 0.08 | 0.0808 | 0.102
11 | F38W | 0.131 | 0.133 | 0.155 | 0.124 | 0.109 | 0.0883 | 0.115 | 0.128 | 0.125 | 0.135 | 0.105 | 0.087 | 0.0836 | 0.132 | 0.122 | 0.13 | 0.0987 |  | 
12 | F38Y | 0.126 | 0.102 | 0.118 | 0.135 | 0.099 | 0.101 | 0.109 | 0.119 | 0.121 | 0.116 | 0.0836 | 0.0908 | 0.126 | 0.117 | 0.104 |  | 0.147 |  | 0.0692
13 | G39E | 0.0619 | 0.0386 | 0.043 | 0.0455 |  | 0.0497 | 0.0383 |  | 0.037 | 0.046 | 0.0537 | 0.0458 | 0.0415 | 0.0408 |  | 0.0372 |  |  | 0.0308
14 | G39I | 0.0479 | 0.0399 | 0.0531 | 0.0442 |  | 0.0393 |  | 0.0481 | 0.0425 | 0.0503 | 0.0298 | 0.047 |  |  |  | 0.0413 | 0.0381 | 0.0392 | 0.0329
15 | G39M | 0.0445 | 0.0448 | 0.0434 | 0.0406 | 0.0462 | 0.0413 | 0.0363 | 0.0413 | 0.0615 | 0.0366 | 0.042 | 0.0407 | 0.0538 |  | 0.0409 | 0.0344 | 0.0377 |  | 0.0406
16 | G39R | 0.059 | 0.0503 | 0.0538 | 0.044 | 0.0494 | 0.0396 | 0.0486 | 0.0542 | 0.0594 | 0.0423 | 0.0393 | 0.0821 | 0.0443 |  | 0.041 |  | 0.0305 | 0.0509 | 
17 | F41I | 0.123 | 0.0884 | 0.119 | 0.111 | 0.102 |  | 0.101 | 0.113 |  | 0.0889 | 0.0933 |  | 0.0978 | 0.0949 | 0.0776 | 0.0713 | 0.0966 |  | 
18 | I42A | 0.065 | 0.064 | 0.0757 |  |  | 0.0688 | 0.059 | 0.0764 |  | 0.065 | 0.0824 | 0.0465 |  | 0.0789 | 0.058 |  | 0.0886 |  | 0.052
19 | I42F | 0.0588 | 0.0549 | 0.0714 | 0.102 |  | 0.0652 | 0.0841 | 0.0795 |  | 0.071 | 0.0797 | 0.0639 |  |  | 0.068 | 0.0805 | 0.0668 |  | 0.0656
20 | I42L | 0.124 | 0.0878 | 0.106 |  | 0.137 | 0.0951 | 0.106 | 0.117 | 0.136 | 0.0892 | 0.0965 | 0.0986 |  | 0.115 | 0.0928 |  | 0.1 |  | 0.103
21 | I42R | 0.0513 | 0.045 | 0.0482 | 0.0484 | 0.0276 | 0.0386 | 0.0212 | 0.0415 | 0.04 | 0.0474 | 0.0393 | 0.0318 | 0.0513 |  | 0.0434 | 0.0442 | 0.0449 | 0.0367 | 0.0283
22 | I43A | 0.0994 | 0.0642 | 0.0879 | 0.0997 | 0.0812 | 0.0687 | 0.0875 | 0.0917 | 0.0806 | 0.0758 | 0.0575 | 0.0675 | 0.0609 | 0.0793 | 0.0811 | 0.0721 | 0.082 | 0.102 | 
23 | I43E | 0.041 | 0.0269 | 0.0407 |  | 0.0328 | 0.0419 | 0.0502 | 0.0401 | 0.0776 | 0.0523 | 0.0434 |  |  | 0.0447 | 0.0518 | 0.0366 | 0.0491 | 0.0517 | 
